Results as given in PubChem BioAssay AID686970 (National Center for Advancing Translational Sciences (NCATS), 2013).
Hit rate of the full screen: of about 360,000 compounds, about 6,000 (1.7%) were called active. Inconclusive results, whose numbers are uncertain, are shown with a selection of clear calls. The call rests on the fitted dose curve; in most records, active means well fitted cell-killing curve with a large enough effect; inconclusive means small, poorly fitted or top-dose-only effect, or effect the other way; inactive means flat fitted curve, though single readings scatter. No potency is given beside an inconclusive call; the fits are too rough.

Assay: qHTS for induction of synthetic lethality in tumor cells producing 2HG: qHTS for the HT-1080-NT fibrosarcoma cell line;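 further: NT is the 2HG producing partner of a matched IDH1 knockdown line; nearly all actives have a fitted effect of over 55% in size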;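 on activity, negative = less viability: 0% = DMSO-treated cells and -100% = media-only wells without cells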
Conditions: HT-1080-NT fibrosarcoma viability, CellTiter-Glo ATP luminescence, 48 h; activity, negative = less viability: at 46.1 µM (top of the series) unless noted
Method in brief: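 Viability by CellTiter-Glo luminescence after 48 h compound exposure at 37C of HT-1080-NT cells (750/well, RPMI, 5% FBS). % activity scaled between DMSO wells and medium-only wells, then curve-fitted and categorized by curve class.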
Potency means the concentration at half of the fitted maximal effect; tags describe the fitted curve by direction and shape.

Structure (SMILES) | Potency | activity, negative = less viability
O=C(CCN1C(=O)/C(=C/c2ccccc2Cl)SC1=S)N1CCCC1 | inconclusive [cytotoxic, partial curve] | 
Cc1ccc(N2C(=O)C3CCC(C)(C2=O)C3(C)C)cc1 (stereo not given) |  | inactive: 9.95%
c1ccc(Cn2c(CNc3nc4ccccc4n3CCN3CCCCC3)nc3ccccc32)cc1 | active: 20.6 µM | 
Cc1c(NC(=O)C(C)Sc2nc3ccccc3c(=O)n2CCO)c(=O)n(-c2ccccc2)n1C (stereo not given) |  | inactive: 13.9%
CN(C)CCCN(C(=O)/C=C/c1cccs1)c1nc2c(F)cccc2s1 | inconclusive [cytotoxic, single point] | 
CCC(=O)Oc1ccc(-c2nc(-c3cccnc3)no2)cc1 | inconclusive [cytotoxic, single point] | 
Cc1nn(-c2ccccc2)c(Cl)c1C(=O)N1CCN(c2ncnc3c2cnn3-c2ccccc2)CC1 | active: 20.6 µM | 
Brc1ccc(-c2nnc3sc(CN4CCN(c5ccccc5)CC4)cn23)cc1 |  | inactive: 5.52%
CN(C(=O)COC(=O)c1ccccc1Nc1ccccc1)c1c(N)n(Cc2ccccc2)c(=O)[nH]c1=O | inconclusive [cytotoxic, partial curve] | 
CCn1c(=O)cc(OCC(=O)N2CCN(c3cccc(C(F)(F)F)c3)CC2)c2ccccc21 |  | inactive: -6.23%
C=CCOC(=O)C1=C(C)NC(SC)=C(C#N)C1c1cccs1 (stereo not given) | active: 9.2 µM | 
Cc1ccc(-c2cc(C(=O)Nc3ccc4c(c3)OCCO4)c3ccccc3n2)cc1 | inconclusive [cytotoxic, single point] | 
CC(c1ccccc1)N1C(=O)C2C3CCC(C3)C2C1=O (stereo not given) |  | inactive: 10.6%
O=C(Nc1ccc(COc2ccccc2)cc1)Nc1cccc(C(=O)O)c1 |  | inactive: -10.3%
O=C(CN1CCCCCC1)N1c2ccccc2Sc2ccc(C(F)(F)F)cc21 | inconclusive [cytotoxic, single point] | 
CCOC(=O)c1c(C)n(-c2ccccc2)c2ccc(OCCN(C)C)cc12 | inconclusive [cytotoxic, partial curve, poor fit] | 
CN(C)c1ccc(CN(C(=O)c2ccc(Cl)c([N+](=O)[O-])c2)C2CCS(=O)(=O)C2)cc1 (stereo not given) | inconclusive [cytotoxic, single point] | 
CCN(CC)CCCN=C1N[C@@H](c2cccc(C(F)(F)F)c2)C(C(=O)OC)=C(C)N1CC | inconclusive [cytotoxic, single point] | 
Cc1ccc(NC(=O)c2cc(C)n(-c3ccccc3)c2C)cc1 | inconclusive [cytotoxic, partial curve] | 
O=C(COc1cc2oc(=O)c3c(c2cc1Cl)CCC3)NCC(O)c1ccccc1 (stereo not given) |  | inactive: 9.08%
Cc1nc(NCc2ccco2)c2c(C)c(C)sc2n1 | active: 5.62 µM | 
NC(=O)c1nsc(C(=O)N(c2ccc(F)cc2)C(C(=O)NCC2CCCO2)c2c[nH]c3ccccc23)c1N (stereo not given) |  | inactive: -7.65%
Cc1ccc(S(=O)(=O)N(C)/N=C/C=C/c2ccccc2)cc1 |  | inactive: -5.6%

Structure (SMILES) | Potency | activity, negative = less viability
COc1ccc(OC)c(NC(=O)c2cccc(NC(=O)c3ccco3)c2)c1 |  | inconclusive: 30.2%
Cc1ccc2c(c1)N(C(=O)CCC(=O)NC1CCCCCC1)CC(C)O2 (stereo not given) |  | inactive: 0.585%
COc1ccc(CC(=O)NCC(=O)N=Nc2c(O)[nH]c3ccccc23)cc1 |  | inactive: -0.698%
O=C1C(Cl)=C(NCc2cccnc2)C(=O)c2ccccc21 | active: 18.4 µM | 
CSc1ccc(/C=N/Nc2nc(C)cc(C)n2)cc1 | inconclusive [rising, single point] | 
CCc1ccc(NC(=S)/N=C(\N)Nc2nc(C)c3cc(CC)ccc3n2)cc1 | inconclusive [cytotoxic, single point] | 
COc1cc(OC)cc(C(=O)N2CC(=O)Nc3ccccc32)c1 | inconclusive [cytotoxic, partial curve] | 
O=C(/C=C/c1cccc(C(F)(F)F)c1)N1CCN(c2ccccn2)CC1 | inconclusive [cytotoxic, single point] | 
CCc1ccc(NC(=O)Cn2c(=O)n(CCC(=O)NC3CCN(Cc4ccccc4)CC3)c(=O)c3ccccc32)cc1 | inconclusive [rising, single point] | 
N#CC(C(=O)Nc1ccc(Cl)c(Cl)c1)=C1Nc2ccccc2N1 | inconclusive [cytotoxic, single point] | 
O=C(C1CCN(S(=O)(=O)c2ccc(F)cc2)CC1)N1CC=C(c2ccccc2)CC1 |  | inactive: -1.3%
NC(=S)n1[nH]c(-c2ccc([N+](=O)[O-])cc2)c(N=Nc2cccc(Cl)c2)c1=O | inconclusive [cytotoxic, partial curve, poor fit] | 
COC(=O)C(NC(=O)c1ccc(F)cc1)(Nc1ncc(S(=O)(=O)c2ccc([N+](=O)[O-])cc2)s1)C(F)(F)F (stereo not given) | inconclusive [cytotoxic, partial curve] | 
Cc1n[nH]c(C)c1CCc1nc2c3ccccc3nc(SCC(=O)Nc3ccccc3F)n2n1 | inconclusive [cytotoxic, single point] | 
Cc1cc(C(=O)CSc2nncs2)c(C)n1-c1ccc2c(c1)OCO2 | inconclusive [cytotoxic, single point] | 
CC(NC(=O)Cc1cccs1)c1ccc2c(c1)OCO2 (stereo not given) |  | inactive: 4.21%
O=S(=O)(c1ccccc1)c1nc(Nc2ccccc2N2CCOCC2)sc1Cl | inconclusive [cytotoxic, single point] | 
CCCCN(CC)CCCNC(=S)Nc1ccc2nc(N3CCN(CC)CC3)cc(C)c2c1 | active: 16.4 µM | 
COCCNC(=O)C1=C(N)C(C(=O)Nc2ccc(C)c(S(=O)(=O)N3CCCCC3)c2)SC1=Nc1ccc(C)cc1C (stereo not given) | active: 12.6 µM | 
CC(=O)c1ccc(S(=O)(=O)N2CCN(C(=O)/C=C/c3ccc4ccccc4n3)CC2)cc1 | inconclusive [cytotoxic, single point] | 
Cc1ccc(-c2cc(C(=O)N/N=C/c3c[nH]c4ccccc34)n[nH]2)o1 |  | inactive: -19.2%
COc1ccc(Nc2nc(NCc3ccco3)nc(N/N=C/c3ccc(O)cc3)n2)cc1 |  | inactive: 1.7%
